The source gives many values for each of these; only a part stands here.
Experiment: Solubility in lipid solvents (Example 1)
Type: physicochemical
Conditions: ambient conditions
Description: Solubility of ABT-263 parent (free base, crystalline Form I) and ABT-263 bis-HCl salt was tested in a variety of lipid solvents and solvent mixtures in ambient conditions. Trademarked solvents in this study, unless identified hereinabove, are as follows (substantially equivalent products from other manufacturers can be substituted if available): • Miglyol 810™ of Sasol: caprylic/capric triglycerides; • Capmul MCM™ of Abitec: glyceryl caprylate/caprate; • Captex 300™ of Abitec: caprylic/capric triglycerides; • Labrafil M 2125 CS™ of Gattefosse: polyoxyethylene glyceryl linoleate; • Tween 20™ of Uniqema: polysorbate 20; • Labrasol™ of Gattefossë: polyoxyethylene glyceryl caprylate/caprate; • Cremophor RH40™: polyoxyethylene (40) hydrogenated castor oil. “PE-91” is Phosal 53 MCT™+ethanol, 9:1 by volume. “LOT-343” is Labrafil M 1944 CS™+oleic acid+Tween 80™, 30:40:30 by weight.
In some cases, indicated in Table 4 by an asterisk (*), solubility was initially high but precipitation occurred upon standing.

[1] = PE-91 (Phosal 53 MCT + ethanol 9:1 by volume)

A Solubility (Capmul MCM) of over 321 mg/g, a Solubility (Capmul PG-8) of under 43 mg/g and a Solubility (Capmul PG-12) of under 39 mg/g were found for `CC1(C)CCC(c2ccc(Cl)cc2)=C(CN2CCN(c3ccc(C(=O)NS(=O)(=O)c4ccc(N[C@H](CCN5CCOCC5)CSc5ccccc5)c(S(=O)(=O)C(F)(F)F)c4)cc3)CC2)C1.Cl.Cl` [ABT-263 bis-HCl salt] in this work. It also gave a Solubility (Captex 300) of under 52 mg/g, a Solubility (Imwitor 742) of over 245 mg/g and a Solubility (Labrafil M 1944 CS) of under 45 mg/g. The Solubility (Labrafil M 2125 CS) was under 44 mg/g, the Solubility (Labrasol) was over 292 mg/g and the Solubility (Lipoid S75 MCT) was 48.9 mg/g. It also gave a Solubility (Miglyol 810) of under 84 mg/g, a Solubility [1] of 89 mg/g and a Solubility (PEG-400) of over 278 mg/g. The Solubility (Tween 20) was over 176 mg/g, the Solubility (Tween 80) was over 125 mg/g and the Solubility (castor oil) was over 78.8 mg/g. The Solubility (corn oil) was under 104 mg/g, the Solubility (oleic acid) was under 498 mg/g and the Solubility (poloxamer 124) was under 41 mg/g. It also gave a Solubility (propylene glycol) of over 337 mg/g and a Solubility (sesame oil) of under 80 mg/g.

A Solubility (Labrafil M 2125 CS) of over 290 mg/g, a Solubility (Miglyol 810) of under 76 mg/g and a Solubility [1] of over 250 mg/g were found for `CC1(C)CCC(c2ccc(Cl)cc2)=C(CN2CCN(c3ccc(C(=O)NS(=O)(=O)c4ccc(N[C@H](CCN5CCOCC5)CSc5ccccc5)c(S(=O)(=O)C(F)(F)F)c4)cc3)CC2)C1` [ABT-263] in this work. It also gave a Solubility (PEG-400) of over 200 mg/g, a Solubility (Phosal 53 MCT) of over 300 mg/g and a Solubility (corn oil) of under 86 mg/g. The Solubility (sesame oil) was under 75 mg/g.

Source: patent US8728516B2, “Stabilized lipid formulation of apoptosis promoter” (AbbVie Inc., priority 2009, dated 2014)
